Drawing on the supplement of paper PMC10126150, this text covers switch fluorescence ratio for 78 sequences.

Values marked as one replicate rest on one cluster of the flow cell; about a third of the high ones do not repeat.

The data set has as its system ATP. As to the kind of experiment: switch fluorescence ratio, 500 uM ATP over buffer (Cy3 cluster intensity, sum of 5 cycles each) (fold (ratio)); higher = stronger signal-on switching upon ATP binding; sequences stand for … in TCGTCGGCAGCGTCAGATGTGTATAAGAGACAGTTTTTTTTTTTTTTTTTTTTTTTTT…TC. Particulars: aptamer strand: ATP DNA aptamer (quencher-CACCTGGGGGAGTATTGCGGAGGAAGG + anchor), 100 nM annealed; ATP concentration: 500 uM; one replicate. In outline: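 Cy3-labelled switching-strand clusters on a modified Illumina MiSeq flow-cell were annealed to 100 nM quencher-labelled ATP aptamer and imaged first in selection buffer, then after 15 min with 500 uM ATP at 22 °C. NaOH stripping and re-annealing separated each of five buffer/ATP cycles, and clusters outside 100-1000 RFU were excluded. The fluorescence ratio sums target-cycle Cy3 intensity over buffer-cycle Cy3 intensity per cluster and averages it per switch-domain sequence.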
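Also: ATP exposure 15 min at 22 °C before imaging.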

On to CGTTGTGATC, for which the switch fluorescence ratio amounted to 0.988. The same measure for GGTCTAACAG: 0.993; for TACACGAACC: 1.33. Next, TACGCCTACT: 1.32.

In the case of AGGTCACAGG, the switch fluorescence ratio was found to be 1.09. Consider TGGTGCCACG, for which the switch fluorescence ratio was 0.982.

Turning to AGAGGTGGGA, the switch fluorescence ratio came out at 1.02.

Consider TACCCCTAAA, for which the switch fluorescence ratio turned out to be 1.05. Next, TAAGGGTCTG: 1.01; AGTGAAACCG: 1. Next, CATGGCCTAG: 1; AATTCACAGC: 1.05. Next, ACTTTAGGAG: 1.05; GAGTTGCTCT: 1.01. Turning to CGTGTATCTT, the switch fluorescence ratio was 0.936.

On to TAGGGCGTGG, for which the switch fluorescence ratio stood at 0.992.

Turning to TTCAGAGGTG, the switch fluorescence ratio was determined as 1.16. The same measure for AGCGGTTGCT: 0.991. The same measure for ACAATATCGA: 1.1. For the sequence TGATGATTAC, the switch fluorescence ratio stood at 1.08. The same measure for AAACTTTTTG: 0.976; for AGACGATGGC: 1.06; for AGTTGTACGT: 0.967. For TTAACCCAAC, the switch fluorescence ratio came out at 1.09. Next, CCGAATGCCA: 1.64. Next, GACTACCGAA: 1.05; GATGCGCGTC: 1.02; TTTGCGTCTT: 0.996. The same measure for TCATCCTTCC: 3.21; for TTATCGTACG: 1.03; for TTGTGGCTTC: 1.01. With CGTGTCAGAG, the switch fluorescence ratio is 1. GAGTCAGGAC: the switch fluorescence ratio came to 1.01. The same measure for TCAGGCGTAA: 1.31. The same measure for TGCTGTAA: 1.15. Next, GACAGTTATC: 1.04; CCTAACAGAG: 1.02. With AGAAGTAGAG, the switch fluorescence ratio is 0.975. The same measure for AGATGCGCTC: 1.01; for TGGGTAGGCC: 1.08.

With CGACGTCCCG, the switch fluorescence ratio came to 0.926. Next, TCCAATTGAG: 1.04. Turning to TGCTGCATGG, the switch fluorescence ratio is 1.13. Next, TCCAAGCTAG: 1.14. Next, CGTGGGTTG: 1.02. In the case of GTAGCACGGC, the switch fluorescence ratio turned out to be 1.2. The same measure for CCGTTACATC: 1.52; for AGGGTTTAGG: 1.01; for GGTTCGCCGA: 1.03. Next, AAAGGTGTCG: 1.09; CTGCGCCAGC: 0.997; ATGAACGACT: 0.985. Next, GCGGGTAGGA: 0.984; AGTTGGGTA: 1.01.

On to AATGTGTGTA, for which the switch fluorescence ratio is 1.03. For the sequence CGTTTGTACA, the switch fluorescence ratio is 1.01. Next, TGAGCAACGG: 0.957; CTCGCATAGG: 2.69.

As to CTTTGGCACG, the switch fluorescence ratio came out at 0.991. In the case of TAACGGATAT, the switch fluorescence ratio turned out to be 1.03. For ACACTCTTGT, the switch fluorescence ratio came out at 1.04. The same measure for ATTGTCGACG: 1.03; for TAAGGTAATC: 0.978. For the sequence TCCCCAAACC, the switch fluorescence ratio amounted to 1.13.

In the case of TGGCGTGACC, the switch fluorescence ratio came out at 0.989. As to TCCTTTACTT, the switch fluorescence ratio worked out at 1.02. The same measure for CGCCAGAATA: 1.04.

In the case of ATAACGGTCG, the switch fluorescence ratio amounted to 0.939. Next, GTATGGGGAC: 0.963. Next, TCGGGGATTG: 0.966. Next, AGTTAGTCGA: 0.991. As for ATGAGTAAGC, the switch fluorescence ratio turned out to be 0.97. Next, GACTGTCATA: 1.02; CGTTCATTGA: 0.975; TGCCGATGT: 0.976. The same measure for GGGATTCAAT: 0.957; for GAATTAGAAC: 1.02; for AATGGAAACT: 0.992.
